# Some of the results follow.
# How the values were obtained:
# Test in all cases: glycan array binding signal (z-score within array); higher = stronger binding
# Settings in all cases: glycan notation: IUPAC condensed, linker removed
# [1] = molecular target: Fuc(a1-2)Gal(b1-4)GlcNAc(b1-3)Gal(b1-4)GlcNAc(b1-2)Man(a1-3)[Fuc(a1-2)Gal(b1-4)GlcNAc(b1-3)Gal(b1-4)GlcNAc(b1-2)Man(a1-6)]Man(b1-4)GlcNAc(b1-4)GlcNAc
# Summary of the method: (§1)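 Glycan array data were curated from 3228 arrays in the Consortium for Functional Glycomics database and kept only where the protein sequence was available. Glycan names were converted to IUPAC-condensed notation, and columns mapping to the same glycan were averaged. The binding signal is a within-array Z-score, averaged across arrays of the same protein sequence at different concentrations or buffers and across linkers. Negative Z-scores can be read as non-binding.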
# [2] = molecular target: Fuc(a1-2)Gal(b1-4)GlcNAc(b1-3)Gal(b1-4)GlcNAc(b1-3)Gal(b1-4)GlcNAc
# Summary of the method: as §1
# [3] = molecular target: Fuc(a1-2)Gal(b1-4)GlcNAc(b1-3)GalNAc
# Summary of the method: as §1
# [4] = molecular target: Fuc(a1-2)Gal(b1-4)GlcNAc(b1-3)[Fuc(a1-2)Gal(b1-4)GlcNAc(b1-6)]GalNAc
# Summary of the method: as §1
# [5] = molecular target: Fuc(a1-2)Gal(b1-4)GlcNAc(b1-3)[Fuc(a1-3)[Gal(b1-4)]GlcNAc(b1-6)]Gal(b1-4)Glc
# Summary of the method: as §1
# [6] = molecular target: Fuc(a1-2)Gal(b1-4)GlcNAc(b1-6)GalNAc
# Summary of the method: as §1
# [7] = molecular target: Fuc(a1-2)Gal(b1-4)GlcNAc6S
# Summary of the method: as §1
# [8] = molecular target: Fuc(a1-2)Gal(b1-4)[Fuc(a1-3)]GlcNAc
# Summary of the method: as §1
# [9] = molecular target: Fuc(a1-2)Gal(b1-4)[Fuc(a1-3)]GlcNAc(b1-2)Man(a1-3)[Fuc(a1-2)Gal(b1-4)[Fuc(a1-3)]GlcNAc(b1-2)Man(a1-6)]Man(b1-4)GlcNAc(b1-4)[Fuc(a1-6)]GlcNAc
# Summary of the method: as §1
# [10] = molecular target: Fuc(a1-2)Gal(b1-4)[Fuc(a1-3)]GlcNAc(b1-2)[Fuc(a1-2)Gal(b1-4)[Fuc(a1-3)]GlcNAc(b1-4)]Man(a1-3)[Fuc(a1-2)Gal(b1-4)[Fuc(a1-3)]GlcNAc(b1-2)Man(a1-6)]Man(b1-4)GlcNAc(b1-4)GlcNAc
# Summary of the method: as §1
# [11] = molecular target: Fuc(a1-2)Gal(b1-4)[Fuc(a1-3)]GlcNAc(b1-3)Gal(b1-4)[Fuc(a1-3)]GlcNAc
# Summary of the method: as §1
# [12] = molecular target: Fuc(a1-2)Gal(b1-4)[Fuc(a1-3)]GlcNAc(b1-3)Gal(b1-4)[Fuc(a1-3)]GlcNAc(b1-3)Gal(b1-4)[Fuc(a1-3)]GlcNAc
# Summary of the method: as §1
# [13] = molecular target: Fuc(a1-2)Gal(b1-4)[Fuc(a1-3)]GlcNAc(b1-3)GalNAc
# Summary of the method: as §1
# [14] = molecular target: Fuc(a1-2)Gal(b1-4)[Fuc(a1-3)]GlcNAc(b1-3)[Neu5Ac(a2-6)Gal(b1-4)GlcNAc(b1-6)]Gal(b1-4)Glc
# Summary of the method: as §1
# [15] = molecular target: Fuc(a1-2)Gal3S(b1-4)GlcNAc
# Summary of the method: as §1
# [16] = molecular target: Fuc(a1-2)Gal6S(b1-3)GlcNAc
# Summary of the method: as §1
# [17] = molecular target: Fuc(a1-2)Gal6S(b1-3)GlcNAc6S
# Summary of the method: as §1
# Fuc(a1-2)Gal6S(b1-4)Glc = molecular target: Fuc(a1-2)Gal6S(b1-4)Glc
# Summary of the method: as §1
# [18] = molecular target: Fuc(a1-2)Gal6S(b1-4)Glc6S
# Summary of the method: as §1
# Fuc(a1-2)[Gal(a1-3)]Gal = molecular target: Fuc(a1-2)[Gal(a1-3)]Gal
# Summary of the method: as §1
# [19] = molecular target: Fuc(a1-2)[Gal(a1-3)]Gal(b1-3)GalNAc
# Summary of the method: as §1
# [20] = molecular target: Fuc(a1-2)[Gal(a1-3)]Gal(b1-3)GalNAc(b1-3)Gal(a1-4)Gal(b1-4)Glc
# Summary of the method: as §1
# [21] = molecular target: Fuc(a1-2)[Gal(a1-3)]Gal(b1-3)GlcNAc
# Summary of the method: as §1
# [22] = molecular target: Fuc(a1-2)[Gal(a1-3)]Gal(b1-3)GlcNAc(b1-2)Man(a1-3)[Fuc(a1-2)[Gal(a1-3)]Gal(b1-3)GlcNAc(b1-2)Man(a1-6)]Man(b1-4)GlcNAc(b1-4)GlcNAc
# Summary of the method: as §1
# [23] = molecular target: Fuc(a1-2)[Gal(a1-3)]Gal(b1-3)GlcNAc(b1-2)Man(a1-3)[Fuc(a1-2)[Gal(a1-3)]Gal(b1-3)GlcNAc(b1-2)Man(a1-6)]Man(b1-4)GlcNAc(b1-4)[Fuc(a1-6)]GlcNAc
# Summary of the method: as §1
# [24] = molecular target: Fuc(a1-2)[Gal(a1-3)]Gal(b1-3)GlcNAc(b1-3)GalNAc
# Summary of the method: as §1
# [25] = molecular target: Fuc(a1-2)[Gal(a1-3)]Gal(b1-3)GlcNAc(b1-6)GalNAc
# Summary of the method: as §1
# [26] = molecular target: Fuc(a1-2)[Gal(a1-3)]Gal(b1-4)Glc
# Summary of the method: as §1
# [27] = molecular target: Fuc(a1-2)[Gal(a1-3)]Gal(b1-4)GlcNAc
# Summary of the method: as §1
# [28] = molecular target: Fuc(a1-2)[Gal(a1-3)]Gal(b1-4)GlcNAc(b1-2)Man
# Summary of the method: as §1
binder,measurement,setting,value
PX9961A-pdi-456-24-456 (Parabacteroides distasonis) (protein) KTSSTQLPTIDAISSVADLTNAVNGVYEQQATEVGSYGAEFTLLADLRSGDFQSISTVNHAGPMYRYQTGKNDEMVYSFYKLFYNSLARLNNVLAAAENLEGADVDILKGELYAMRALYHFDLARVFAKLPSTTDMNDLGIVLSTEVYPTDYIGTRATLQQTYDQILKDIETALPLLSKDKQTGHINYWGALAIRARAYLYLEKNKEALADCKEIIASSPYKLYTRDEYIGAWDKEGTNEAIFEILVTPNYNAQRNSIGYFTHASGYGECAATESFLEELAKHPGDIRTELFAKETDNGYDGTYPQKYKGRDGQIYVNNPKVVRLSEVYLIAAEAALKAGDTSAAAGYMNTLRKNRIENYTDVASITLDDILLERRLELFTEGHTAWDAWRNGKSVNNKFVGEVKPGDYRTIMAIPIGEITVSRGQLIQNPGY,glycan array binding signal (z-score),[1],0.01
same,glycan array binding signal (z-score),[2],-0.148
same,glycan array binding signal (z-score),[3],-0.462
same,glycan array binding signal (z-score),[4],0.213
same,glycan array binding signal (z-score),[5],-0.716
same,glycan array binding signal (z-score),[6],0.583
same,glycan array binding signal (z-score),[7],-0.015
same,glycan array binding signal (z-score),[8],0.01
same,glycan array binding signal (z-score),[9],0.31
same,glycan array binding signal (z-score),[10],0.645
same,glycan array binding signal (z-score),[11],-0.191
same,glycan array binding signal (z-score),[12],0.615
same,glycan array binding signal (z-score),[13],0.737
same,glycan array binding signal (z-score),[14],-0.278
same,glycan array binding signal (z-score),[15],-0.639
same,glycan array binding signal (z-score),[16],-0.062
same,glycan array binding signal (z-score),[17],0.753
same,glycan array binding signal (z-score),Fuc(a1-2)Gal6S(b1-4)Glc,-0.556
same,glycan array binding signal (z-score),[18],-0.221
same,glycan array binding signal (z-score),Fuc(a1-2)[Gal(a1-3)]Gal,1.54
same,glycan array binding signal (z-score),[19],-0.144
same,glycan array binding signal (z-score),[20],0.058
same,glycan array binding signal (z-score),[21],-0.259
same,glycan array binding signal (z-score),[22],-0.367
same,glycan array binding signal (z-score),[23],-0.658
same,glycan array binding signal (z-score),[24],-0.494
same,glycan array binding signal (z-score),[25],-0.263
same,glycan array binding signal (z-score),[26],0.029
same,glycan array binding signal (z-score),[27],-0.239
same,glycan array binding signal (z-score),[28],-0.231
